The other results are listed elsewhere or left out. The energies were worked out here from pooled read counts, against the library average; single values are noisy.
Target: T1, Pho4 (S. cerevisiae) (UniProt P07270)
T1 sequence: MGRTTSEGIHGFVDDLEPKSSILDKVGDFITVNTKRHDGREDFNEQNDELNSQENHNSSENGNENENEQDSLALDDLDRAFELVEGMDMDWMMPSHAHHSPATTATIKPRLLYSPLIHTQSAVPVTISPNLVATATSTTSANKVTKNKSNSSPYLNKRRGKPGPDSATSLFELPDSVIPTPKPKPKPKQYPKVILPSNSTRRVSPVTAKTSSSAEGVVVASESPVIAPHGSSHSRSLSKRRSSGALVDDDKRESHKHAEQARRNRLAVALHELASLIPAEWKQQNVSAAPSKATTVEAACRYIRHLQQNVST
Assay: relative binding free energy (BET-seq); higher = weaker binding
Conditions: reference: library average

Sequence | relative binding free energy
TTATTCACGTGTTGAT | 0.32 kcal/mol
TCTCTCACGTGTGTAT | 0.27 kcal/mol
GAATTCACGTGAATTT | 0.42 kcal/mol
TGTTTCACGTGGTCGT | 0.24 kcal/mol
TAGGTCACGTGTTTTA | 0.05 kcal/mol
GTTAGCACGTGAGTCG | 0.31 kcal/mol
TTTTACACGTGTAGCT | 0.15 kcal/mol
ACTTTCACGTGGTGGG | 0.22 kcal/mol
GGTTTCACGTGAACTG | 0.47 kcal/mol
TATGGCACGTGTTGTT | -0.04 kcal/mol
TCTTTCACGTGGTAAG | 0.36 kcal/mol
AATAGCACGTGGAATG | -0.05 kcal/mol
TGGGGCACGTGTTCTT | -0.04 kcal/mol
TGCTCCACGTGAGGGG | 0.32 kcal/mol
TATTACACGTGGGGAG | 0.01 kcal/mol
TAGTACACGTGTTAAG | 0.04 kcal/mol
GAGGACACGTGTGAAG | 0.03 kcal/mol
TCTTGCACGTGGGTGG | -0.06 kcal/mol
ATATGCACGTGCAGGA | -0.07 kcal/mol
TTAAGCACGTGCGCGT | -0.05 kcal/mol
GTGGACACGTGGTAAG | 0.14 kcal/mol
TTAAGCACGTGTGGTC | 0.03 kcal/mol
GTAGGCACGTGGATCG | -0.08 kcal/mol
GGACGCACGTGGTGGC | -0.28 kcal/mol
CTTGGCACGTGGCGTT | -0.21 kcal/mol

Sequence | relative binding free energy
TATAACACGTGGAGTT | 0.02 kcal/mol
AGTTTCACGTGAGGAC | 0.38 kcal/mol
CGGTTCACGTGAAGGA | 0.28 kcal/mol
ATTATCACGTGTGTCT | 0.15 kcal/mol
TCTCGCACGTGGGTTT | -0.18 kcal/mol
TCTGGCACGTGATATG | -0.09 kcal/mol
AAGTACACGTGGAGGC | 0.22 kcal/mol
ATGATCACGTGGCATT | 0.11 kcal/mol
CGTTGCACGTGTAATT | 0.17 kcal/mol
GGGTCCACGTGTTGTG | -0.08 kcal/mol
CGGATCACGTGTGAGG | 0.13 kcal/mol
CTGATCACGTGAGGGG | 0.34 kcal/mol
GTGTTCACGTGGTTAT | 0.3 kcal/mol
TTGAGCACGTGCTGGG | -0.11 kcal/mol
TGGATCACGTGATTAA | 0.28 kcal/mol
TGGATCACGTGAGCGT | 0.26 kcal/mol
GATATCACGTGATTAT | 0.25 kcal/mol
TAGGGCACGTGACCGG | 0 kcal/mol
TGCTGCACGTGTTCGG | 0.06 kcal/mol
GTAGTCACGTGATGGG | 0.16 kcal/mol
TTTGACACGTGAGTGC | 0.17 kcal/mol
TTGGACACGTGATCGG | 0.15 kcal/mol
GATTACACGTGGGTTG | 0.18 kcal/mol
TGGCGCACGTGTGAGG | -0.08 kcal/mol
TCGTGCACGTGTAAGT | -0.05 kcal/mol

Sequence | relative binding free energy
AGGGTCACGTGTGGCC | 0.11 kcal/mol
GGTATCACGTGTTTGG | 0.16 kcal/mol
AATAGCACGTGAGGGC | 0.18 kcal/mol
ATAATCACGTGTAGTA | 0.04 kcal/mol
CTGAACACGTGTGTTG | 0.03 kcal/mol
ATTGCCACGTGGGTGT | -0.25 kcal/mol
GCTGTCACGTGGTAGA | 0.32 kcal/mol
TTGGCCACGTGGTTAT | -0.05 kcal/mol
GGTTACACGTGGATAA | 0.44 kcal/mol
ATTCGCACGTGTCGTG | 0.02 kcal/mol
ATCAACACGTGTTGTG | -0.01 kcal/mol
AATAGCACGTGGGTTG | -0.27 kcal/mol
GCAAACACGTGGTGGT | -0.01 kcal/mol
GGTTTCACGTGTGGGA | 0.45 kcal/mol
GTCTGCACGTGTTCAT | 0.14 kcal/mol
GGTGTCACGTGCTCGA | 0.15 kcal/mol
GTGGGCACGTGATCGA | 0.14 kcal/mol
CTGAGCACGTGTTTGG | -0.03 kcal/mol
TTCTGCACGTGTTTGA | 0.01 kcal/mol
GTCTGCACGTGTGTAT | 0.17 kcal/mol
TCTGGCACGTGTGTTT | 0.08 kcal/mol
ATTATCACGTGGGGGA | 0.06 kcal/mol
GGTATCACGTGATCTT | 0.27 kcal/mol
GTAAACACGTGTATGG | -0.09 kcal/mol
TGGGACACGTGGATAG | 0.16 kcal/mol

Sequence | relative binding free energy
TAGCGCACGTGAAGTT | 0.14 kcal/mol
TGAGTCACGTGTGATG | 0.28 kcal/mol
AGTGTCACGTGTTCAG | 0.13 kcal/mol
ATTATCACGTGTATAT | 0.09 kcal/mol
CGTGACACGTGGAGGA | 0 kcal/mol
AGGGACACGTGTAGCG | 0.1 kcal/mol
GTTTACACGTGTCGGG | 0.29 kcal/mol
TGTTGCACGTGTGGGA | 0.16 kcal/mol
GGGTTCACGTGGAAGA | 0.47 kcal/mol
GGTATCACGTGTACAT | 0.28 kcal/mol
ATCGTCACGTGCGGGA | 0.09 kcal/mol
AAGGTCACGTGGGTCA | 0.05 kcal/mol
CTTAACACGTGGTAGT | -0.18 kcal/mol
TGTGACACGTGGTGAA | 0.01 kcal/mol
AATTTCACGTGGTCTG | 0.26 kcal/mol
CGGGTCACGTGGTTGC | 0.14 kcal/mol
TGGTTCACGTGACGGT | 0.23 kcal/mol
TTACTCACGTGAAAGT | 0.36 kcal/mol
TGGTGCACGTGTGACA | 0.12 kcal/mol
AATTTCACGTGGACAG | 0.24 kcal/mol
GGAGTCACGTGTTATG | 0.1 kcal/mol
TTTGGCACGTGAAAGT | 0.04 kcal/mol
ATAAGCACGTGATTGT | -0.06 kcal/mol
ATAGGCACGTGGTTAC | -0.1 kcal/mol
AGCATCACGTGTTTGG | 0.16 kcal/mol

Sequence | relative binding free energy
ATAGTCACGTGCGGGG | -0.01 kcal/mol
GTGGGCACGTGTAATT | 0.02 kcal/mol
GTTTTCACGTGTAAGT | 0.32 kcal/mol
TTTCGCACGTGTTAGT | 0 kcal/mol
AATTTCACGTGTAGTA | 0.23 kcal/mol
ATATCCACGTGAGTGT | 0.21 kcal/mol
GGATACACGTGAAAGG | 0.26 kcal/mol
TCTGGCACGTGTTTGA | -0.06 kcal/mol
GGCGGCACGTGATGGT | 0.16 kcal/mol
GAAAACACGTGTAGGG | 0.09 kcal/mol
GCGTTCACGTGTATGA | 0.39 kcal/mol
TAGGACACGTGTGAAT | 0.26 kcal/mol
AGTCTCACGTGGGAGA | 0.06 kcal/mol
GATTGCACGTGTTTGG | 0.2 kcal/mol
CTGGACACGTGAGTTG | 0.27 kcal/mol
CTTTACACGTGTGGAT | 0.21 kcal/mol
AGGAGCACGTGATTGA | 0.02 kcal/mol
ATTACCACGTGTAGTG | 0.02 kcal/mol
ATGTGCACGTGAGATT | 0.21 kcal/mol
AGTTACACGTGCTGGG | 0 kcal/mol
ATTTGCACGTGCCGTG | -0.04 kcal/mol
GGAAGCACGTGGAGGG | -0.11 kcal/mol
GTATCCACGTGGGGCT | -0.06 kcal/mol
TGATACACGTGGCTTG | -0.1 kcal/mol
CAGTGCACGTGATGAG | 0.11 kcal/mol

Sequence | relative binding free energy
GGGACCACGTGGTGGT | -0.15 kcal/mol
GGGATCACGTGGGAAT | 0.22 kcal/mol
TTATGCACGTGAAGAG | 0.31 kcal/mol
AGGTGCACGTGGGGGC | -0.21 kcal/mol
TGCATCACGTGGGGTT | -0.01 kcal/mol
GTTTTCACGTGTTAAG | 0.32 kcal/mol
ATATTCACGTGCAAGG | 0.22 kcal/mol
GTTTACACGTGAAGTG | 0.32 kcal/mol
TTGGACACGTGGTACG | -0.2 kcal/mol
ATTAACACGTGTCGGT | 0.03 kcal/mol
TGGGACACGTGCGTTG | -0.04 kcal/mol
TTAGTCACGTGAGAGT | 0.32 kcal/mol
TGATGCACGTGGGAAT | -0.08 kcal/mol
AATTTCACGTGTAGGC | 0.14 kcal/mol
TTGGCCACGTGGTCAG | -0.08 kcal/mol
TTGGCCACGTGTGGAG | 0.1 kcal/mol
ATCGTCACGTGGGGCG | 0 kcal/mol
TGCGTCACGTGGTCAG | -0.1 kcal/mol
TGGCTCACGTGTATGC | 0.28 kcal/mol
TGGAGCACGTGCTTTG | -0.14 kcal/mol
TAACTCACGTGGTATT | 0.17 kcal/mol

From the BET-seq Pho4 binding data (Le et al. 2018)
